# According to PubChem BioAssay AID1745845 (National Center for Advancing Translational Sciences (NCATS), 2022):
# Among all 360,000 compounds or so, about 2,600 (0.72%) were called active. The inconclusive results got no clear call from the source; some entries with a clear call stand among them for comparison. Calls come from the whole dose curve; as a rule, active = well fitted inhibition curve with a large enough effect; inconclusive = small, poorly fitted or top-dose-only effect; inactive = no such curve, though single readings can be large or run the other way. Where the call is inconclusive, the potency comes from a doubtful curve fit.
# Experiment: Primary qHTS for Inhibitors of ATXN expression; note: nearly all actives have a fitted effect of over 55% in size
# Details: HEK-293 ATXN2-luciferase reporter, luminescence, 24 h; activity change, negative = inhibition: at 57 µM (top of the series)
# Summary of the method: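 qHTS (up to 57 uM final) was run with 24 h compound exposure of reporter cells at 37 °C. Each well was multiplexed: SteadyGlo luminescence measured ATXN2-luciferase expression after a fluorogenic Gly-Phe-AFC viability readout (25 uM final).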
# % is set by controls: 0 for no effect and ±100 for the full control effect; potency is the fitted concentration of half-maximal effect; tags give direction and shape of the fitted curve.
SMILES,Potency,"activity change, negative = inhibition"
CC(C)C1C(c2ccccc2)NC(c2ccccc2)CC1(O)c1ccc(F)cc1 (stereo not given),"inconclusive: 37.7 µM [inhibitor, single point]",–
COCc1cc(=O)[nH]c(Nc2nc3ccc(C)cc3o2)n1,"inconclusive: 22.4 µM [inhibitor, single point]",–
N#C/C(=N\Nc1ccc(F)cc1)C(=O)C1CC1,"inconclusive: 4.74 µM [inhibitor, partial curve, poor fit]",–
Cc1ccc2c(c1)C(c1ccc(F)cc1)N(C(=O)C(C)C)CC(=O)N2 (stereo not given),"inconclusive: 39.8 µM [inhibitor, single point]",–
CCc1nnc(NC(=O)c2nc(S(=O)(=O)Cc3ccccc3)ncc2Cl)s1,"inconclusive: 39.8 µM [inhibitor, single point]",–
CCCCN(CCCC)c1nc(OC)nc(-n2nnc(C(C)=O)c2C)n1,inactive,–
CCCCCCCOC(=O)C[N+](C)(C)CCOC1CC2CCC1(C)C2(C)C (stereo not given),active: 35.5 µM,–
O=C(Nc1ccccn1)c1cccc(S(=O)(=O)N2CCCc3ccccc32)c1,"inconclusive: 25.1 µM [inhibitor, partial curve, poor fit]",–
CCOC(=O)CSC1=NC(=O)/C(=C\c2ccc(OC(C)=O)cc2)S1,"inconclusive: 35.5 µM [inhibitor, single point]",–
CCC(Oc1ccc(F)cc1)C(=O)Nc1cc(-c2ccc(C)cc2)no1 (stereo not given),inactive,–
COc1cccc(CNC(=O)Nc2cc(C(=O)NCc3cccc(F)c3)ccc2N2CCCC2)c1,"inconclusive: 2.82 µM [inhibitor, full curve, poor fit]",–
O=C(/C=C/c1cn(CC(O)CN2CCCCCC2)c2ccccc12)c1ccccc1 (stereo not given),"inconclusive: 31.6 µM [inhibitor, single point]",–
COc1ccc(S(=O)(=O)NC(=O)C2(C)CCN2C(=O)CC2CCCC2)cc1 (stereo not given),inactive,–
CCCCCn1c(N2CCC(Cc3ccccc3)CC2)nc2c1c(=O)[nH]c(=O)n2C,"inconclusive: 39.8 µM [inhibitor, single point]",–
COc1ccc(CN(C)C(=O)c2cc(-c3ccc(C)cc3C)nc3ccccc23)c(OC)c1OC,"inconclusive: 39.8 µM [inhibitor, single point]",–
COc1ccc(CCNC(=O)c2cc3ccc(Cl)cc3nc2N)cc1,inactive,–
COc1ccc(/C=C2\C(=O)c3ccccc3OC2c2ccccc2)cc1 (stereo not given),"inconclusive: 5.97 µM [inhibitor, partial curve]",–
COc1ccc(-c2c(-c3ccc4c(c3)OCO4)noc2C)cn1,inactive,–
Cc1[nH]c(-c2ccc(F)cc2)cc1C(=O)N1CCN(c2ccccc2)CC1,"inconclusive: 14.1 µM [inhibitor, partial curve, poor fit]",–
Cc1ccc(C)c(S(=O)(=O)N2CCCCC2CCNC(=O)C(=O)NCc2ccco2)c1 (stereo not given),"inconclusive: 28.2 µM [inhibitor, partial curve, poor fit]",–
CC(C)CC(=O)NC(=S)Nc1nc(-c2cccc3ccccc23)cs1,inactive,–
COc1ccc(-c2cc(N3CCCC3)n3ncnc3n2)cc1,inactive,–
CCCCN1CCc2c1nc1ccc(Br)cc1c2N,"inconclusive: 28.2 µM [inhibitor, single point]",–
CC1=CC(C)(C)N(C(=O)c2ccccc2)c2ccccc21,inactive,–

SMILES,Potency,"activity change, negative = inhibition"
O=C(Nc1ccc(F)cc1)N1CCCN(c2ccc(C(F)(F)F)cn2)CC1,"inconclusive: 15.8 µM [inhibitor, partial curve]",–
Cc1ccc(S(=O)(=O)N(CCCO)CC(O)CON=C2c3ccccc3-c3ccccc32)cc1 (stereo not given),"inconclusive: 28.2 µM [inhibitor, single point]",–
O=C(Nc1ccc(F)c(F)c1)C1CCN(S(=O)(=O)c2cccs2)CC1,"inconclusive: 22.4 µM [inhibitor, partial curve, poor fit]",–
O=C1/C(=C/c2ccccc2)CCc2ccc(Cl)nc21,"inconclusive: 37.7 µM [inhibitor, single point]",–
CCc1nc(SCC(=O)N2c3ccccc3CC2C)c2c(C)c(C)sc2n1 (stereo not given),"inconclusive: 20 µM [inhibitor, single point]",–
Cc1cc(NCCCN(C)C)n2c(nc3ccccc32)c1C#N,"inconclusive: 33.6 µM [inhibitor, single point]",–
COc1ccc(N2C(=O)CC(Sc3nnc(-c4ccccc4F)n3C)C2=O)cc1 (stereo not given),"inconclusive: 39.8 µM [inhibitor, single point]",–
Cc1ccc(NS(=O)(=O)c2ccc(OCC(=O)Nc3cccc([N+](=O)[O-])c3)c(C)c2)cc1,"inconclusive: 39.8 µM [inhibitor, single point]",–
CCCCC(CC)C(=O)Nc1cc([N+](=O)[O-])ccc1F (stereo not given),inactive,–
NS(=O)(=O)c1ccc(NC(=O)/C(=C/c2ccncc2)NC(=O)c2ccccc2)cc1,inactive,–
Cc1nc2ccn(Cc3cccnc3)c(=O)c2cc1C(=O)Nc1ccc(OC(F)(F)F)cc1,"inconclusive: 15.8 µM [inhibitor, partial curve, poor fit]",–
COCCCn1c2nc3ccccc3nc2c2c(=O)n(Cc3ccc(Cl)cc3)cnc21,"inconclusive: 22.4 µM [inhibitor, single point]",–
CCOC(=O)C1=C(C)c2ccccc2N(S(=O)(=O)C(F)(F)F)C1C(=O)OCC (stereo not given),inactive,–
CCCn1c(CCC(=O)O)ccc1-c1ccccc1,–,inconclusive: -40.9% [inhibitor]
O=[N+]([O-])c1ccc(Sc2nc3ccccc3o2)c([N+](=O)[O-])c1,"inconclusive: 39.8 µM [inhibitor, single point]",–
Cc1ccnc(NC(=O)/C=C/c2cccs2)c1,inactive,–
CCc1nnc(NC(=O)Cc2cc(OC)c(OC)c(OC)c2)s1,"inconclusive: 8.44 µM [inhibitor, single point]",–
Oc1ccc(N=Nc2nc(-c3ccccc3)c(-c3ccccc3)[nH]2)cc1,inactive,–
Cc1ccc(-n2c(CSc3nc(C)cc(C)n3)n[nH]c2=S)cc1,inactive,–
COc1ccc2c(c1)oc(=O)c1c3ccccc3[nH]c21,inactive,–
O=C(NCC(c1cccs1)N1CCOCC1)c1cn(-c2ccccc2)nc1-c1ccc(F)cc1 (stereo not given),inactive,–
CC(C)(C)NC(=O)c1ccc(COc2ccc(Cl)cc2Cl)o1,"inconclusive: 35.5 µM [inhibitor, partial curve, poor fit]",–
CCCCCCCCN1C(=O)[C@H](CC(=O)N2CCCC2)C[C@@]2(C(=O)OC)CCCCC=C12,"inconclusive: 39.8 µM [inhibitor, single point]",–
Cc1ccc(OC(C)C(=O)N2CCc3ccccc32)cc1 (stereo not given),inactive,–

SMILES,Potency,"activity change, negative = inhibition"
COc1ccc(/C=C/CN2CCCC(C(=O)c3ccc(OC)c(F)c3)C2)cc1 (stereo not given),inactive,–
O=c1[nH]c(SCc2ccccc2Cl)nc2c1CCC2,inactive,–
COc1ccc(Cl)c(-c2cc(C(=O)Nc3ccc(C)c(NS(C)(=O)=O)c3)[nH]n2)c1,"inconclusive: 39.8 µM [inhibitor, partial curve, poor fit]",–
CC(=O)Nc1ccc(C=NN=C2c3ccccc3-c3ccccc32)cc1,"inconclusive: 4.74 µM [inhibitor, partial curve, poor fit]",–
Cc1ccc(S(=O)(=O)c2nc(NCc3ccc4c(c3)OCO4)sc2Cl)cc1,"inconclusive: 39.8 µM [inhibitor, single point]",–
CCCc1c(C)c2cc(C)ccc2[nH]c1=O,inactive,–
O=C(Nc1cccc(C(F)(F)F)c1)Oc1ccc(Cl)c2cccnc12,"inconclusive: 39.8 µM [inhibitor, single point]",–
Cc1cc(=O)n(C)c(=O)n1CC(=O)N1CCCCCC1,inactive,–
COc1ccc(NC(=O)c2c(C)nn(Cc3ccccc3)c2Cl)cc1S(=O)(=O)N1CCOCC1,inactive,–
O=c1c2ccccc2nc(COc2ccccc2)n1/N=C/c1cc([N+](=O)[O-])ccc1O,"inconclusive: 14.1 µM [inhibitor, partial curve]",–
CNC(=O)c1ccccc1Nc1nc(Nc2ccc(N3CCOCC3)cc2OC)ncc1Cl,"inconclusive: 19.3 µM [inhibitor, partial curve]",–
CCCn1c(=O)c(C(=O)Nc2ncccc2O)c(O)c2ccccc21,"inconclusive: 39.8 µM [inhibitor, single point]",–
COC(=O)c1scc(C)c1NC(=O)CSc1ccc(Cl)cc1,"inconclusive: 8.44 µM [inhibitor, partial curve, poor fit]",–
COc1cc2nc(CN(C)Cc3ccc(SC)cc3)[nH]c(=O)c2cc1OC,"inconclusive: 14.1 µM [inhibitor, partial curve]",–
Cc1ccc(N(C)S(=O)(=O)c2cccc(C(=O)OCC(=O)c3c(N)n(C)c(=O)n(C)c3=O)c2)cc1,"inconclusive: 20 µM [inhibitor, single point]",–
CCCNC(=O)C1(C)CCCN(Cc2cc(-c3ccccc3)n(C)n2)C1 (stereo not given),inactive,–
CCCCOCCCNC(=O)C[C@@H]1C[C@@]2(C(=O)OCC)CCCC=C2N(Cc2cccc3ccccc23)C1=O,"inconclusive: 39.8 µM [inhibitor, single point]",–
COc1ccccc1CCC(=O)Nc1cccc(S(=O)(=O)N2CCCC2)c1,inactive,–
CCOc1ccc(CCNS(=O)(=O)c2cc3c(cc2C)NC(=O)CO3)cc1OCC,inactive,–
c1ccc2c(C(c3nnnn3-c3ccc4c(c3)OCCO4)N3CCCCC3)ccnc2c1 (stereo not given),inactive,–
O=[N+]([O-])c1ccc(COc2ccc(CN3CCCCC3)cc2)cc1,inactive,–
Cc1ccc(S(=O)(=O)Nc2cccc3c2O[C@H](CN(C)C(=O)Nc2cccc4ccccc24)[C@H](C)CN([C@H](C)CO)C3=O)cc1,"inconclusive: 39.8 µM [inhibitor, partial curve, poor fit]",–
